{"source": "paper PMC7819943", "about": "“Rice protein-binding microarrays: a tool to detect cis-acting elements near promoter regions in rice”", "note": "The other results are listed elsewhere or left out.", "data": [{"biological_target": "T1, OsWOX13 (Oryza sativa, UniProt Q5QMM3 1-267)", "T1 sequence": "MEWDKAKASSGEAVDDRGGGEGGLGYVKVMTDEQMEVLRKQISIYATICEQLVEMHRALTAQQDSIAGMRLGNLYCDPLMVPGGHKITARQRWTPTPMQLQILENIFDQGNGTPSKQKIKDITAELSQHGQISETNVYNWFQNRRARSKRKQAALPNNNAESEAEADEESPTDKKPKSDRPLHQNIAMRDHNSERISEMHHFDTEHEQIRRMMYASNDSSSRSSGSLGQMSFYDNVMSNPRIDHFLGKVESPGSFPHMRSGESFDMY", "test": "protein-binding microarray (RPBM); PBS, 2% BSA, 51.3 ng/ul salmon testes DNA, 50 uM zinc acetate, 200 nM TF, 25 C, 1 h; high values mean tight binding", "settings": "protein: recombinant; tags: N-terminal polyhistidine and DsRed monomer fusion (pET32a); label: CyDye5-dUTP incorporated in the synthesized complementary strand; 3' TTTTT single-stranded linker to array surface; dsDNA, one strand shown", "outline": "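Transcription factors were each fused at the N-terminus to a polyhistidine tag plus DsRed and expressed in E. coli BL21-CodonPlus before Ni–NTA purification. Binding to a double-stranded custom Agilent array was carried out with 200 nM protein at 25 °C for 1 h in PBS, 2% BSA, salmon testes DNA and 50 µM zinc acetate. The binding signal is per-feature fluorescence intensity, in arbitrary units, on an Axon 4000B scanner.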", "values": [{"sequence": "GATAATTTAACACTCCTTTAAATGGGTTTTGATTATTTGACGGAGTCACCTAGTGCAG", "binding signal": "13500 fluorescence intensity (a.u.)"}, {"sequence": "GTACTAGTAATTTGCTAGGTTAATTTAGGCCCTGTTTCGTCGGAGTCACCTAGTGCAG", "binding signal": "15400 fluorescence intensity (a.u.)"}, {"sequence": "AAGGATGAACTTGATTGCGAAGTCCAAGAGCTTAGCAGAACGGAGTCACCTAGTGCAG", "binding signal": "12000 fluorescence intensity (a.u.)"}, {"sequence": "GACAAAATTGAGATTACTCTCATGTTGACGAGAGAAACACCGGAGTCACCTAGTGCAG", "binding signal": "8540 fluorescence intensity (a.u.)"}, {"sequence": "TGTTTGATTATGTTCAATCATTGCAAATCATGTCATCTGTCGGAGTCACCTAGTGCAG", "binding signal": "45900 fluorescence intensity (a.u.)"}, {"sequence": "ACCTACATATCACTAAGTAATCAACTGTATTAGTGACTTACGGAGTCACCTAGTGCAG", "binding signal": "4420 fluorescence intensity (a.u.)"}, {"sequence": "GTTTATGTTAGTGCTAGTGATTAGTACTTAAACATTCAGACGGAGTCACCTAGTGCAG", "binding signal": "4010 fluorescence intensity (a.u.)"}, {"sequence": "TGGTGAAATTTGTATTTTAATTAATTACATAATGTAAATCCGGAGTCACCTAGTGCAG", "binding signal": "22400 fluorescence intensity (a.u.)"}, {"sequence": "TGTTGTTGATTAATAACATAAATCTAGCTTGCCATATGTGCGGAGTCACCTAGTGCAG", "binding signal": "33100 fluorescence intensity (a.u.)"}, {"sequence": "CTTAATTAAGTTCATGCATCTTATCTAGATGCACGGTGCACGGAGTCACCTAGTGCAG", "binding signal": "28100 fluorescence intensity (a.u.)"}, {"sequence": "ATGGATAGATAGATAGATAGATAGATAGGATGAATGGAAGCGGAGTCACCTAGTGCAG", "binding signal": "44700 fluorescence intensity (a.u.)"}, {"sequence": "ATTTGACAGAAGAAAACTGTCGCAAGTTTTCTATCAATTCCGGAGTCACCTAGTGCAG", "binding signal": "11100 fluorescence intensity (a.u.)"}, {"sequence": "GGTAATTAAGCTAAGCGCCGAGACGCGCCGCCCCAGATATCGGAGTCACCTAGTGCAG", "binding signal": "4600 fluorescence intensity (a.u.)"}, {"sequence": "AACCAAATATAAATTGAGTAGCAATTTCACAACTCATCATCGGAGTCACCTAGTGCAG", "binding signal": "5080 fluorescence intensity (a.u.)"}, {"sequence": "TGGATTTTAAATTAAGTAAATTGCACCAGCGGTCCTTAAACGGAGTCACCTAGTGCAG", "binding signal": "6480 fluorescence intensity (a.u.)"}, {"sequence": "CTGCTCCTGAGGGGTAGGGAGGGAGGGGAAGGAGCACGTTCGGAGTCACCTAGTGCAG", "binding signal": "3610 fluorescence intensity (a.u.)"}, {"sequence": "TTAACCGCTTAATTATAACCGCCTCTCGGATTAGCGCGGCCGGAGTCACCTAGTGCAG", "binding signal": "10500 fluorescence intensity (a.u.)"}, {"sequence": "TAGTAATAGATAGAGAAGCATAAATACCTCCATTATTTGTCGGAGTCACCTAGTGCAG", "binding signal": "12000 fluorescence intensity (a.u.)"}, {"sequence": "GATGTGATTGAAAGTTTGTGTGTGTATGACAGTTTGATGTCGGAGTCACCTAGTGCAG", "binding signal": "61700 fluorescence intensity (a.u.)"}, {"sequence": "GATTTGGGGATTTGGGGTTTGATTTAGGATGTGCATGCCACGGAGTCACCTAGTGCAG", "binding signal": "7910 fluorescence intensity (a.u.)"}, {"sequence": "AGTTGTCATCTGCAATCACTTGATGAGCTTGATTTGTAAGCGGAGTCACCTAGTGCAG", "binding signal": "6720 fluorescence intensity (a.u.)"}, {"sequence": "TGGATAGATTAGGAGGTGACTACTCCAAAACTGTAGGAGTCGGAGTCACCTAGTGCAG", "binding signal": "17800 fluorescence intensity (a.u.)"}, {"sequence": "GTACATAATTATGGAGGAGGGGAATATACCGGAGGGTAAGCGGAGTCACCTAGTGCAG", "binding signal": "14100 fluorescence intensity (a.u.)"}, {"sequence": "AACTTAATTGTCTTTCTAGTTTTGTCCCGAGTCAAACATTCGGAGTCACCTAGTGCAG", "binding signal": "37100 fluorescence intensity (a.u.)"}, {"sequence": "CTGGGATTGAACGGATTGGGTTATGGACTGATATGGGCCGCGGAGTCACCTAGTGCAG", "binding signal": "33700 fluorescence intensity (a.u.)"}, {"sequence": "ATTATTAATTTACAAATACAATTTACAGAAAATTTGAAATCGGAGTCACCTAGTGCAG", "binding signal": "8210 fluorescence intensity (a.u.)"}, {"sequence": "ACCTAAATTAGACAGTTTTGTATAGTTTAGGGGTAAAGATCGGAGTCACCTAGTGCAG", "binding signal": "34800 fluorescence intensity (a.u.)"}, {"sequence": "AGCCTAATTAATCCATAATTAACATATGTTTACTGTAGCACGGAGTCACCTAGTGCAG", "binding signal": "53000 fluorescence intensity (a.u.)"}, {"sequence": "CTTGATTTTCTTCTCGGCACAAGAAATATTATTATTGCAACGGAGTCACCTAGTGCAG", "binding signal": "15000 fluorescence intensity (a.u.)"}, {"sequence": "TCCTTTATTTAATTTTCCCAACGCGTGAAGTACAGTGCCCCGGAGTCACCTAGTGCAG", "binding signal": "4870 fluorescence intensity (a.u.)"}, {"sequence": "TGGACACGACTAGATTGACGCGTGGGTTTCTCCACACATACGGAGTCACCTAGTGCAG", "binding signal": "15100 fluorescence intensity (a.u.)"}, {"sequence": "AGCATTAAATTATATTTCTATATGAACTCTAACCTCTATTCGGAGTCACCTAGTGCAG", "binding signal": "3370 fluorescence intensity (a.u.)"}, {"sequence": "TGTGGCTAAATTTATCAATTGAATGGGCTAGAGGCACGCTCGGAGTCACCTAGTGCAG", "binding signal": "17400 fluorescence intensity (a.u.)"}, {"sequence": "AAAGTTAATTTCCATCAGTTTCGGACATAAAACCGGCCTTCGGAGTCACCTAGTGCAG", "binding signal": "19200 fluorescence intensity (a.u.)"}, {"sequence": "AAATAATTTTCACATACCATAAGTAAGATCCGGTGCTAGCCGGAGTCACCTAGTGCAG", "binding signal": "3800 fluorescence intensity (a.u.)"}, {"sequence": "TAGCAAATAATTAATTAATCACGTGCTAATGGACTGCTTCCGGAGTCACCTAGTGCAG", "binding signal": "37900 fluorescence intensity (a.u.)"}, {"sequence": "CTTATTGACTTATTGTTTTACGAAAACACGGATACATTTTCGGAGTCACCTAGTGCAG", "binding signal": "3150 fluorescence intensity (a.u.)"}, {"sequence": "AAGCCTAATTAATCATCCATTAGCAAATATTTACTGTAGTCGGAGTCACCTAGTGCAG", "binding signal": "20600 fluorescence intensity (a.u.)"}, {"sequence": "GATGTATTGATGGATTCTATGGATGTATGGAATGATGTTGCGGAGTCACCTAGTGCAG", "binding signal": "6390 fluorescence intensity (a.u.)"}, {"sequence": "ATCAAATTAAAATTAAGTTTCAACATTTATATTTTAGCTACGGAGTCACCTAGTGCAG", "binding signal": "13500 fluorescence intensity (a.u.)"}, {"sequence": "AGCCGATTAGTTATTGACTGATTTATTCCGGTTTTGATGTCGGAGTCACCTAGTGCAG", "binding signal": "45400 fluorescence intensity (a.u.)"}, {"sequence": "GAGAAAATCATTAAGATGATAGGTTGTTGGATTGAAATATCGGAGTCACCTAGTGCAG", "binding signal": "7050 fluorescence intensity (a.u.)"}]}]}
